Data on 61 molecules can be found in PubChem BioAssay AID1159614 (National Center for Advancing Translational Sciences (NCATS), 2016).

Out of some 45,000 compounds screened, about 65 (0.1%) were called active. The call rests on the fitted dose curve; in most records, active means well fitted activation curve with a large enough effect; inconclusive means small, poorly fitted or top-dose-only effect; inactive means no such curve, though single readings can be large or run the other way. This is one part of the list.

Sequence of UniProt P54803 (P54803 whole entry, looked up): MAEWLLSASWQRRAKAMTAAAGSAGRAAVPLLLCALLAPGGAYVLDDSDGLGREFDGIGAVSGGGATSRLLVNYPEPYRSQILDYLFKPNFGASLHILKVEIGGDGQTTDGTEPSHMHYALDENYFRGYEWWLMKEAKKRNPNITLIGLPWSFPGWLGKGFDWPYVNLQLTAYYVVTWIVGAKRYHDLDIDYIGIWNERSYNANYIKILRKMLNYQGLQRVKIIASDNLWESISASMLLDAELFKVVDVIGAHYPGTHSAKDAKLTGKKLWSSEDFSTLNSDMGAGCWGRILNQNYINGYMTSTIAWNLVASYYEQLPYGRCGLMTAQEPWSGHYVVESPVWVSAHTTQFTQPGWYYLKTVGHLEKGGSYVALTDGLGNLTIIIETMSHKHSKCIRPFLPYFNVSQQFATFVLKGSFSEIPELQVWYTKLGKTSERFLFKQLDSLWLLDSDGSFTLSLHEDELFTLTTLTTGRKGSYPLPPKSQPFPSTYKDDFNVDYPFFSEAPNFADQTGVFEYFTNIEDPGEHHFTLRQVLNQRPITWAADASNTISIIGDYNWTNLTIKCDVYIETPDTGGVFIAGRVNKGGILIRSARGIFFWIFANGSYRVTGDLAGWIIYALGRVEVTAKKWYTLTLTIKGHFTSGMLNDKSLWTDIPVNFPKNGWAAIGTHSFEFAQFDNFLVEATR

The target of this assay is Galactocerebrosidase (Homo sapiens) (UniProt P54803). Briefly: A Novel Cell-Based Assay to Identify Small Molecules for B -Galactocerebrosidase. Further: 0% is about no effect; nearly all actives have a fitted effect of over 65% in size. The following applies: 145M-Twi-hGALC-G270D cells (Twitcher mouse brain line with human GALC G270D), HMU-beta-Gal fluorescence, 48 h; series mostly up to 57.5 µM; activation: at the top concentration. The procedure, abridged:
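Live 145M-Twi cells (Twitcher mouse brain-derived, GALC-null) stably expressing human GALC-G270D, with a wild-type GALC line, were compound-treated. Residual GALC activity was then read as fluorescence from 0.1 mM final HMU-β-gal at pH 5.2; higher signal means activation.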
Turning to `CCc1ccc(NC(=O)CSc2nccn2-c2ccc(F)cc2)cc1`, the “activation” value is inactive: -4.63%. With `COc1ccc(N2CC(NC(=O)/C=C\c3ccc4c(c3)OCO4)CC2=O)cc1OC` (stereo unspecified), the “activation” value was inactive: -0.555%. For `COc1ccccc1NC(=O)CSc1nncn2c1cc1sccc12` the value was inactive: -3.73%; for `CCOCCCNC(=O)C(c1ccccc1)N(Cc1ccc2c(c1)OCO2)C(=O)c1ccc(NC(C)=O)cc1` (stereo unspecified), inactive: -3.96%; for `Cc1ccccc1CNC(=O)c1ccc2nc(SCc3ccc(F)cc3)n(C)c2c1`, inactive: -13.5%. The result for `CCc1ccccc1NC(=O)Cn1cc(S(=O)(=O)N2CCCC2)c(S(=O)(=O)N2CCCC2)c1` reads inactive: -7.7%; that for `O=C(c1ccco1)N(Cc1cccnc1)c1nc2c(F)cc(F)cc2s1`, inactive: -14.9%. Take `O=C(NCc1ccc2c(c1)OCO2)c1ccc2c(c1)N(Cc1ccccc1F)C(=O)c1ccccc1S2`: the “activation” value is inactive: -13.2%. The result for `CCc1ccccc1NC(=O)CN(c1ccccc1)S(=O)(=O)c1ccsc1C(=O)OC` reads inactive: 7.49%; that for `Cc1ccc2cccc(NC(=O)c3ccc(OC(C)C)cc3)c2n1`, inactive: -11.4%. Regarding `CCC(=O)C1=C(c2ccc(F)cc2)N(C(=O)CC)n2cnnc2S1`, the “activation” value is inactive: -25.9%. Turning to `Cc1ccccc1CN1C(=O)c2ccccc2S(=O)c2ccc(C(=O)NCc3ccc(Cl)cc3)cc21` (stereo unspecified), the “activation” value was inactive: -12%. For the molecule `CCCOc1ccc(-c2cccc(NS(=O)(=O)c3ccccc3)c2)nn1`, the “activation” value is inactive: 2.99%. Consider `COc1ccccc1C(=O)N1c2ncnn2C2(CCCCC2)[C@@H]2CCCC[C@@H]21`, for which the “activation” value is inactive: -11.1%.

With `COc1ccc(Cn2c(C(=O)O)c(CNC3CCCC3)c3ccc(OC)cc32)cc1`, the “activation” value is inactive: 0.372%. The result for `CCn1c(=O)cc(SCC(=O)NCc2cccc(Cl)c2)c2ccccc21` reads inactive: -7.65%; that for `Cc1cc(C)cc(-n2c(C)cc(C(=O)C(=O)Nc3ccccc3F)c2C)c1`, inactive: -12.2%. On to `CCN1C(=O)c2ccccc2Sc2ccc(NC(=O)N3CCN(c4cc(C)ccc4C)CC3)cc21`, for which the “activation” value was inactive: -10.8%. Consider `CCOC(=O)c1ccc(NC(=O)C(CC)Sc2nc3ccncc3[nH]2)cc1` (stereo unspecified), for which the “activation” value is inactive: -7.34%. As for `CC(C)(C)OC(=O)N1CCC(c2c(C(=O)NCCN3CCc4ccccc4C3)cnn2-c2ccc(F)cc2)CC1`, the “activation” value is inactive: -18.4%.

For the molecule `CCCCOc1ccc(C(=O)Nc2ccc(-c3cc4ccccc4oc3=O)cc2)cc1`, the “activation” value was inactive: -7.65%. As to `Cc1ccc(CNC(=O)Nc2cc(C(=O)NCc3ccc(C(C)C)cc3)ccc2N2CCCC2)cc1`, the “activation” value was inactive: -5%. As to `Cc1c(Cl)cccc1NC(=O)c1ccc2c(c1)CCCN2S(C)(=O)=O`, the “activation” value is inactive: -33.5%. Turning to `CC(C)c1ccc(OCC(=O)NCCS(=O)(=O)N2CCN(c3ccc(F)cc3)CC2)cc1`, the “activation” value was inactive: -6.48%. For `CCOc1ccc(-c2nn(-c3ccccc3)cc2C2NC(=O)NC(C)=C2C(=O)OC(C)C)cc1` (stereo unspecified) the value was inactive: -8.38%; for `CSc1nc(Nc2ccc(F)cc2)cc(-c2ccccc2)n1`, inactive: -12.4%; for `Cc1ccc(-n2cc(C(=O)Oc3ccc(F)cc3)c3ccccc3c2=O)cc1`, inactive: 0.404%. `O=C(CC1C(=O)N(c2ccc(F)cc2)C(=O)N1Cc1ccc2c(c1)OCO2)Nc1ccc(Cl)cc1` (stereo unspecified): the “activation” value is inactive: -12.8%. For `Cc1ccc2c(=O)cc(C(=O)Nc3ccc(S(=O)(=O)Nc4onc(C)c4C)cc3)oc2c1C` the value was inactive: -0.64%; for `O=C(CSc1oc(-c2ccccc2)nc1S(=O)(=O)c1ccc(Cl)cc1)c1ccccc1`, inactive: -5.77%.

As to `Cc1cc(C)nc(-n2nc(C)c3c2N(Cc2ccccc2)C(=O)CC3c2ccc(Cl)cc2)n1` (stereo unspecified), the “activation” value was inactive: -12.6%. The result for `Cc1cc(C)cc(OCC(=O)Nc2c(C(=O)c3ccccc3)oc3ccccc23)c1` reads inactive: 1.23%. For the molecule `CCC(=O)N1c2ccccc2CC1C(=O)NCc1cc(OC)ccc1OC` (stereo unspecified), the “activation” value is inactive: -16.1%. As for `O=C(CCn1c(=O)c2cccn2c2cccnc21)Nc1ccccc1C(F)(F)F`, the “activation” value was inactive: -7.91%. As for `CCN(C(=O)Cn1c(=O)n(-c2ccccc2)c(=O)c2ccc(C(=O)NCc3ccc4c(c3)OCO4)cc21)c1cccc(C)c1`, the “activation” value was inactive: -11%. The result for `Cc1c(Cl)cccc1NS(=O)(=O)c1ccc(-c2cnc(C3CC3)o2)cc1` reads inactive: -8.31%; that for `CCCCCCCCCCCCSCCOCCO`, inactive: -14.6%; that for `CCOc1ccc(NC(=O)c2cc(S(=O)(=O)N3CCc4ccccc43)ccc2F)cc1`, inactive: -8.09%. Turning to `CC(C)c1ccc(NC(=O)c2cc(S(=O)(=O)N(C)C3CCCCC3)ccc2F)cc1`, the “activation” value is inactive: -10.3%. Turning to `CCCCn1cnc2cc(NCc3ccc(OCC)cc3)ccc21`, the “activation” value was inactive: -15.3%.

With `O=C(c1ccc2c(c1)N(Cc1ccccc1F)C(=O)c1ccccc1S2(=O)=O)N1CCN(c2ccccn2)CC1`, the “activation” value was inactive: -18.1%. As for `CCn1cc(S(=O)(=O)c2cccc(C)c2)c(=O)c2cc(F)c(N3CCCC(C)C3)cc21` (stereo unspecified), the “activation” value is inactive: -12%.

In the case of `CCOc1ccc(CNC(=O)C2CCCCN2S(=O)(=O)c2ccc(F)cc2)cc1OC` (stereo unspecified), the “activation” value was inactive: 2.16%. The result for `O=C(CCC(=O)c1ccc(F)cc1)Nc1ccc(Cl)cc1` reads inactive: -15.5%. For `O=C(CSc1n[nH]c(-c2ccccc2Cl)n1)NCc1ccc(F)cc1` the value was inactive: 3.72%; for `CCn1c(=O)c2cc(C(=O)NCCCN3CCN(C)CC3)sc2c2ccccc21`, inactive: -3.33%. The result for `COc1ccc(-c2nc3c(c(SC)n2)Cc2c(CO)cnc(C)c2O3)cc1` reads inactive: -2.3%. Regarding `O=C(NCCCN1CCN(c2cccc(Cl)c2)CC1)c1sc2ncccc2c1-n1cccc1`, the “activation” value is inactive: -25.4%. Consider `Cc1ccc(-c2nc(CS(=O)(=O)CC(=O)Nc3ccc(Br)cc3F)c(C)o2)cc1`, for which the “activation” value is inactive: -18.3%. As for `CCOc1ccc(NC(=O)CSC2=Nc3ccccc3C3=NC(CCC(=O)NCc4ccco4)C(=O)N23)cc1` (stereo unspecified), the “activation” value was inactive: -7.64%. The result for `CCC(=O)Oc1c(Sc2ccc(Cl)cc2)c(C)nn1-c1ccccc1` reads inactive: -15.1%; that for `Cc1ccc(Cl)cc1N1CCN(C(=O)Cn2ncc3c4ccccc4n(C)c3c2=O)CC1`, inactive: -9.3%.

With `COc1ccc(S(=O)(=O)NCc2nc3nc(C)cc(C)n3n2)cc1`, the “activation” value is inactive: -14.1%. Regarding `Cc1ccc(Nc2c(-c3ccc(Br)o3)nc3ccccn23)cc1`, the “activation” value was inactive: 22%. Turning to `COc1ccc2oc(=O)c(-c3nnc(-c4ccc(C)cc4)o3)cc2c1`, the “activation” value is inactive: 7.79%. On to `Cc1cc2c(cc1S(=O)(=O)Nc1ccc(OC(F)(F)F)cc1)OCC(=O)N2`, for which the “activation” value was inactive: -15.4%.

For `CCN(CC)S(=O)(=O)c1ccc2c(c1)N(CC(=O)NCc1ccccc1)C(=O)C1CCCCN21` (stereo unspecified), the “activation” value is inactive: -27.3%. Regarding `CC1CCCN(c2nc3c(-c4ccc(Cl)cc4)nnn3c3ccccc23)C1` (stereo unspecified), the “activation” value is inactive: 4.32%. `Cc1cc(Cl)ccc1NS(=O)(=O)c1c(C(=O)N2CCC(C)CC2)c(C)n(C)c1C`: the “activation” value was inactive: -8%. The result for `Cc1ccc(-c2csc(-c3cc4c([nH]c3=O)CC(c3ccccc3)CC4=O)n2)cc1` (stereo unspecified) reads inactive: -22.3%; that for `Cc1ccccc1NC(=O)CSc1nc2nccnc2c(=O)n1CCc1c[nH]c2ccccc12`, inactive: -5.24%.
